Results from PubChem BioAssay (NCI).
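A five-concentration, 48-hour dose response in 96-well plates underlies each endpoint, interpolated linearly between surrounding concentrations. GI50 is the concentration that inhibits growth by half. The concentration for full growth arrest is given as TGI.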

Test system: NCI-H322M lung
Test: DTP human tumour cell line panel, 48 h

Question: How did the GI50 turn out when `C#Cc1nc(C2=C(C)C(O)/C(=N/O)C2)cs1` (configuration not stated) was run?
Answer: 83.5 µM

Question: What about the TGI of the same compound?
Answer: > 100 µM
